Reference: PubChem BioAssay AID686978 (National Center for Advancing Translational Sciences (NCATS), 2013)
“And” between values parts separate entries of the source, which are not always exact repeats. Equal values may be shown once. Hit rate of the full screen: of about 420,000 compounds, about 64,000 (15%) were called active. The inconclusive results got no clear call from the source; some entries with a clear call stand among them for comparison. The call rests on the fitted dose curve; in most records, active means well fitted inhibition curve with a large enough effect; inconclusive means small, poorly fitted or top-dose-only effect; inactive means flat fitted curve, though single readings scatter. No potency is given beside an inconclusive call; the fits are too rough.
On the % scale 0 is the no-effect control and ±100 the full control effect; potency means the concentration at half of the fitted maximal effect; tags describe the fitted curve by direction and shape.

Assay: qHTS for Inhibitors of human tyrosyl-DNA phosphodiesterase 1 (TDP1): qHTS in cells in absence of CPT; further: nearly all actives have a fitted effect of over 55% in size
Details: DT40 Tdp1-/- hTDP1 cells, no CPT, ATP luminescence, 48 h; activity change, negative = growth inhibition: at 46.2 µM (top of the series) unless noted
Procedure, shortened: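 Seeded 400 DT40-hTDP1 cells/well (vehicle DMSO, no 20 nM CPT); pinned compounds; ≥48 hr at 37 °C; CellTiter-Glo luminescence as viability measure.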
For `COc1ccc(CNC(=O)c2c(O)nc3c(C)cccn3c2=O)cc1`, the Potency was active: 11.6 µM. For `CN(C)c1ccc(CNC(=O)CCCN2C(=O)c3cccnc3Oc3ccc(Cl)cc32)cc1`, the Potency was inconclusive [inhibitor, single point]. In the case of `CC(=O)C1=C(O)C(=O)N(c2cccc(Br)c2)C1c1ccc(Br)cc1` (stereo not given), the “activity change, negative = growth inhibition” value is reported as inactive: -8.03%. With `CCCCOC(=O)c1ccc(-n2nnc3c(sc4nc(C)cc(C)c43)c2=O)cc1` the Potency was inconclusive [inhibitor, single point]. In the case of `O=C(Nc1ccc(Cl)cc1)NC1CCCC1Cc1ccco1` (stereo not given), the Potency is reported as inconclusive [inhibitor, single point]. For `COc1ccc(/C=N/NC(=O)c2cccc(Br)c2)cc1Cn1cc(Cl)cn1`, the Potency was inconclusive [inhibitor, partial curve, poor fit]. For `Cc1cc(CN2C(=O)c3ccccc3C2=O)cc(N2CCOCC2)c1`, the “activity change, negative = growth inhibition” value was inactive: -4.21%. With `O=C(CSc1cccc[n+]1[O-])Nc1cc(Cl)ccc1[N+](=O)[O-]` the Potency was inconclusive [inhibitor, single point]. For `CCOC(=O)C1CCCN(C(=O)c2ccc(Cl)c(S(=O)(=O)N3CCCCC3)c2)C1` (stereo not given), the Potency was inconclusive [inhibitor, partial curve]. In the case of `Cc1nc([N+](=O)[O-])cn1CC(O)c1ccc(-c2ccccc2)cc1` (stereo not given), the Potency is reported as inconclusive [inhibitor, single point]. In the case of `COc1cc2nc(Nc3cccc(F)c3)nc(N)c2cc1OC`, the Potency is reported as active: 4.11 µM and active: 5.8 µM. In the case of `COc1cc(NC(=O)CSc2nc3c(c(=O)n(C)c(=O)n3C)n2C)cc(OC)c1`, the “activity change, negative = growth inhibition” value is reported as inactive: 0.268%. With `CN(C)CCC[C@]1(c2ccc(F)cc2)OCc2cc(C#N)ccc21` the Potency was inconclusive [inhibitor, single point]. With `CCOc1ccc(-c2nc(-c3ccccc3)c(-c3ccccc3)[nH]2)cc1OCC` the Potency was active: 18.4 µM. For `COc1ccc2cc1Oc1cc3c(cc1OC)CC[N+](C)(C)[C@H]3Cc1ccc(cc1)Oc1c(OC)c(OC)cc3c1[C@@H](C2)[N+](C)(C)CC3`, the Potency was inconclusive [inhibitor, partial curve, poor fit]. With `CC[C@@H]1CC=C[C@H]2[C@H]1C(=O)N(Cc1ccccc1)[C@H]2c1ccoc1` the Potency was active: 14.6 µM. In the case of `Cc1ccc2c(CC(=O)N(Cc3ccc(N(C)C)cc3)Cc3ccco3)coc2c1C`, the Potency is reported as active: 18.4 µM. With `COc1ccccc1CN1CCC2(CC1)c1ccccc1[C@@H](NC(=O)c1ccco1)[C@@H]2OC` the “activity change, negative = growth inhibition” value was inactive: -23.6%. For `Cc1ccc2oc(-c3ccc(C)c(NC(=O)/C=C/c4ccco4)c3)nc2c1`, the “activity change, negative = growth inhibition” value was inactive: -24.1%. For `CC(C)CNc1cc(Cl)c(S(=O)(=O)NCC(C)C)cc1C(=O)O`, the “activity change, negative = growth inhibition” value was inactive: -28.4%. With `O=S1(=O)CC(N2CCC(Cc3ccccc3)CC2)CN1Cc1ccccc1` (stereo not given) the Potency was inconclusive [inhibitor, single point]. In the case of `COc1cc(/C=C/C(=O)N2C(=O)c3cccc(N)c3C2=O)cc(OC)c1OC`, the Potency is reported as active: 29.1 µM. With `Cc1cccc(C)c1Nc1ncnc2ccccc12` the “activity change, negative = growth inhibition” value was inactive: -15.6%. For `Cc1nn(CCC(=O)NNC(=S)Nc2ccc([N+](=O)[O-])cc2)c(C)c1[N+](=O)[O-]`, the “activity change, negative = growth inhibition” value was inactive: -21%. In the case of `COC(=O)C1=C[C@@H](C(=O)OC)[C@@H]2C3=C(C(=O)C2(C)C)[C@H](C)n2c(=O)n(-c4ccccc4)c(=O)n2[C@@H]3C1`, the Potency is reported as inconclusive [inhibitor, single point]. In the case of `C=CCOC(=O)C1=C[C@H](c2csc3ccccc23)C[C@H](OCc2ccc(CO)cc2)O1`, the Potency is reported as active: 20.6 µM. For `COc1cc2ncnc(NCCc3ccccc3)c2cc1OC`, the Potency was active: 9.2 µM. In the case of `O=C1Nc2ccccc2/C1=N/c1sc2c(c1C(=O)NCCc1ccccc1)CCCC2`, the activity change, negative = growth inhibition is reported as inconclusive: -35.1% [inhibitor]. In the case of `CN1C(=O)/C(=C/c2ccc(OCc3ccc(F)cc3)cc2)NC1=S`, the Potency is reported as inconclusive [inhibitor, single point]. In the case of `Cc1ccc2c(=O)n3c(nc2c1)C(Cc1ccccc1)NC(=O)c1cc2ccccc2cc1-3` (stereo not given), the Potency is reported as inconclusive [inhibitor, single point]. In the case of `COc1ccc(N2CCOCC2)c(NC(=O)c2cccc3ccccc23)c1`, the Potency is reported as inconclusive [inhibitor, single point]. In the case of `Cn1cncc1C#Cc1ccc2c(=O)c3ccccc3oc2c1`, the Potency is reported as inconclusive [inhibitor, single point]. In the case of `COc1ccc(-c2c(C)cc3oc(=O)cc(-c4ccccc4)c3c2C)cc1`, the Potency is reported as inconclusive [inhibitor, single point]. For `CCOc1ccc(N2CC(C(=O)Nc3cccc(S(=O)(=O)N4CCOCC4)c3)CC2=O)cc1` (stereo not given), the Potency was inconclusive [inhibitor, single point]. In the case of `COc1cccc(CN(C)C(=O)C2CC(=O)N(c3ccc4c(c3)OCCO4)C2)c1` (stereo not given), the Potency is reported as inconclusive [inhibitor, single point]. For `CCOC(=O)N/N=C/c1c(C)nn(-c2ccccc2Cl)c1Cl`, the Potency was inconclusive [inhibitor, single point]. With `CCOc1cc(NC(=O)c2ccco2)c(OCC)cc1NC(=O)Cc1ccc(OC)c(OC)c1` the Potency was active: 8.2 µM. In the case of `O=C(CSc1nnc(-c2ccncc2)n1Cc1ccco1)Nc1ccccc1F`, the activity change, negative = growth inhibition is reported as inconclusive: -29.8% [inhibitor]. In the case of `CCc1ccccc1NC(=O)CN(C)C(=O)CSc1nnc(Nc2cccc(C)c2C)s1`, the Potency is reported as inconclusive [inhibitor, single point]. For `Cc1ccc(CN2CCN(/N=C/c3cccn3C)CC2)c(C)c1`, the Potency was active: 23.1 µM. In the case of `C/C(=N\O)C1(C)N(O)C(C)(C)C(c2ccc(Br)cc2)=[N+]1[O-]` (stereo not given), the Potency is reported as inconclusive [inhibitor, full curve, poor fit]. With `O=C(c1cc2cc(Br)cc(Br)c2oc1=O)N1CCOCC1` the “activity change, negative = growth inhibition” value was inactive: 3.73%. With `CC(Oc1cccnc1[N+](=O)[O-])C(=O)Nc1cccc(Cl)c1` (stereo not given) the Potency was inconclusive [inhibitor, single point]. With `O=[N+]([O-])c1c(NCc2ccco2)ncnc1NCc1ccco1` the “activity change, negative = growth inhibition” value was inactive: -4.22%. In the case of `COc1ccc(-n2c(C)cc(C(=O)CN3C(=O)C(=O)N(Cc4ccccc4)C3=O)c2C)cc1`, the Potency is reported as inconclusive [inhibitor, partial curve, poor fit]. For `COC(=O)c1sc2ccccc2c1-n1cccc1C(=O)C(=O)Nc1ccc(F)cc1`, the “activity change, negative = growth inhibition” value was inactive: -25.8%. In the case of `CSc1ccccc1-n1nnnc1SCC(=O)Nc1cc(C)ccc1C`, the Potency is reported as inconclusive [inhibitor, single point]. For `O=C(Nc1cccc(F)c1)C1CCN(C(=O)c2ccc(Br)cc2)CC1`, the Potency was inconclusive [inhibitor, partial curve]. In the case of `CCN(CC)C(=O)C1=C(C)N(CCCOC)C(=O)C(CC(=O)NC(c2ccccc2)c2ccccc2)C1` (stereo not given), the Potency is reported as active: 7.31 µM. In the case of `O=C(c1ccc2ccccc2c1)N1CCN(S(=O)(=O)/C=C/c2ccccc2)CC1`, the Potency is reported as active: 25.9 µM. For `O=C1CCCN1C(=O)CSc1nnnn1-c1cccc(F)c1`, the “activity change, negative = growth inhibition” value was inactive: -18.3%. In the case of `c1ccc2c(c1)OCC(CN1CCCCC1)O2` (stereo not given), the “activity change, negative = growth inhibition” value is reported as inactive: -4.99%. For `Cc1c(C(=O)N/N=C/c2ccccc2)[nH]c2ccc(Cl)cc12`, the Potency was active: 6.51 µM. With `Oc1ccccc1-c1cncn1Cc1ccccc1` the Potency was inconclusive [inhibitor, single point]. For `CC(C)CNc1nc(N)c([N+](=O)[O-])c(NCc2ccccc2)n1`, the Potency was inconclusive [inhibitor, single point]. In the case of `COc1c(Br)cc(Br)cc1/C=N/NC(=O)c1ccncc1`, the Potency is reported as inconclusive [inhibitor, single point]. In the case of `Cc1cc(C)n(-c2nnc(NCc3ccc(Cl)cc3)nn2)n1`, the Potency is reported as inconclusive [inhibitor, single point]. In the case of `CCCCN(C(=O)c1ccc(S(=O)(=O)N(C)C)cc1)c1ccccc1`, the Potency is reported as inconclusive [inhibitor, single point]. In the case of `COc1ccc(NC(=O)c2oc3ccccc3c2NC(=O)c2ccco2)c(OC)c1`, the Potency is reported as inconclusive [inhibitor, partial curve]. In the case of `CCc1ccc(OCC(=O)N(Cc2ccc(C(C)C)cc2)C2CCS(=O)(=O)C2)cc1` (stereo not given), the Potency is reported as inconclusive [inhibitor, single point]. In the case of `COC(=O)[C@]1(CC(C)C)N[C@H](c2ccc(SC3CCCCC3)c(OC)c2)[C@@H]2C(=O)N(C)C(=O)[C@@H]21`, the Potency is reported as active: 18.4 µM. With `CCCCN(CCCC)/C(N)=N/c1nc(C)cc(C)n1` the Potency was inconclusive [inhibitor, single point]. For `CCc1ccccc1N(C)S(=O)(=O)c1cc(-c2cc(C)no2)ccc1OC`, the Potency was inconclusive [inhibitor, single point]. In the case of `Cc1ccc(C(=O)N/C(=C\c2cccs2)C(=O)NCCCn2ccnc2)cc1C`, the “activity change, negative = growth inhibition” value is reported as inactive: 3.86%. For `O=C1c2ccccc2NC(c2cccc(O)c2)N1c1ccccc1` (stereo not given), the Potency was inconclusive [inhibitor, partial curve]. In the case of `NC(=O)c1ccccc1OCC(=O)NC12CC3CC(CC(C3)C1)C2`, the Potency is reported as inconclusive [inhibitor, single point]. With `COC(=O)NNC(=O)C(C)Oc1ccc(Cl)cc1Cl` (stereo not given) the “activity change, negative = growth inhibition” value was inactive: -9.58%. For `CCOC(=O)C1(Cc2ccccc2)CCCN(Cc2ccncc2)C1` (stereo not given), the Potency was inconclusive [inhibitor, single point]. With `CSc1ccccc1C(=O)NCCCn1ccnc1` the “activity change, negative = growth inhibition” value was inactive: 10.9%. With `CCOC(=O)c1cc(-c2ccccc2)n(CC(=O)Nc2ccc(OC)cc2)c1C` the Potency was inconclusive [inhibitor, single point].
